Measurements: the supplement of paper PMC11417369
This is one part of the list.

These sequences were tested on PfSIP2 AP2 domain 1 (GST-tagged) (assay: gcPBM binding intensity (ln(normalized median fluorescence intensity)); higher = stronger DNA binding).
Summary of the method: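 GST-fused DNA-binding domains of P. falciparum, expressed in E. coli, were applied at about 25 μg on average for 1 h to an Agilent 4 × 180k array of primer-extended double-stranded 36-bp intergenic genomic probes and negative controls. Binding intensity is the highest Masliner-normalised natural-log median intensity across replicate spots of either probe orientation, measured with Alexa488 anti-GST antibody and a 488 nm scan.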

| Sequence | gcPBM binding intensity (ln) |
| --- | --- |
| ATGAACGGAAAAATATATATAAATATATATATCATG [XGTACX_negctrl_site342] | 6.7 |
| TACATGATAGATCACACACACATATAAATATATATA [CACACA_site5562] | 7.2 |
| TAAAATAACTCACAAAGTACAAAAATAAGCATATGA [XGTACX_site7046] | 6.96 |
| ACATAAGACACAAATACACACAAAAATATATAACAA [CACACA_site4082] | 7.23 |
| ATATATATATATATATGTACATAATGCATATAATAT [XGTACX_site6142] | 9.12 |
| TTAATACTTTTTTCTGTACACACTTGATTTACTATA [CACACA_site2799] | 7.07 |
| TAAACACCCATACATACACACATACATACACCCATA [CACACA_site5125] | 7.1 |
| TTCTTCAATATATTCTTACACACTTAAAAAAAAAAA [CACACA_site228] | 7.5 |
| GTATATAAATAAATAGTGCATTATTAAAAATAATGT | 9.36 |
| TTTTTTTTTTTTTATTGTACATACTTTTAAATATAT [XGTACX_site4303] | 6.98 |
| ATATATTTATATTTTTGTACCCAAAATTGTTTGATG [XGTACX_site3581] | 6.95 |
| ATTGAGGCTGGTTATATAATAATTTTATTATTTTAG [GTGCAC_negctrl_site409] | 6.62 |
| TAAAAGTTGAAGCACACACACAAAAGAAATACAATA [CACACA_site6649] | 6.91 |
| TTAAAGCTTGCATATACACACATACATAAATTCATA [CACACA_site7208] | 6.95 |
| GTATACAACATATGAACACACAAAATATTTTTTTTT [CACACA_site2928] | 7 |
| TATCTCCACAAAAGATGTACTCATATTAATTTATAA [XGTACX_site3535] | 7.11 |
| TATGAAAAGTAAAGTACACACAGGAAAAAAAAAAAA [CACACA_site1749] | 7.03 |
| TTTGTTATATTTAATACACACATATTATAAACACAT [CACACA_site7703] | 7.08 |
| ATAAATAAAGGACACACACACACACTAATAAAAAAA [CACACA_site8840] | 7.23 |
| TATATAATATATTTATGTACTCACAATGGGGTCTAC [XGTACX_site2691] | 7.29 |
| AAATTACTGTAAAAAAGTACAGAAGTTCTTATTTTT [XGTACX_site7416] | 6.97 |
| GTTCATATAATAAAATGTACATAATATATTATATAT [XGTACX_site7623] | 7.18 |

| Sequence | gcPBM binding intensity (ln) |
| --- | --- |
| AGTTTAATTTTGTATACACACATTTGAATTATTAAT [CACACA_site7625] | 7.25 |
| TATATCTATTTCAAATGTACTTATATGATTCTTATA [XGTACX_site6277] | 6.77 |
| AGCTACAAAAATTAATATATATATGTATAGTTATAC [TGCATGCA_negctrl_site531] | 6.81 |
| GTATTATATTTTAATACACACCCAAATATTAAAAAG [CACACA_site8968] | 7.1 |
| AAATGTTCAGAAACTATTATAAAAATGGAATAATAT [CACACA_negctrl_site1544] | 6.98 |
| TGCCATCATATCATAGGTACACAAACATATAAAGAA [XGTACX_site4137] | 7.47 |
| CTTAATATGGATATTGCATGTAGAACATGAACAATA [TGCATGCA_site760] | 6.77 |
| TAAATATTATATTTATGTACATAAGTTTTTTTTAAT [XGTACX_site3559] | 7.01 |
| TTATGCTCAAAGAAAAGTACATAAATAAAAGTATAT [XGTACX_site7365] | 7.2 |
| TTAACAAATAAATGCACACATATATATAAATAATAT [CACACA_site28] | 7.24 |
| TATATGTAGATTAAACGTACTTACAACGGAATTATC [XGTACX_site3036] | 7.2 |
| AAAAAAAAGAATTAGGCACACAATTTTAATATAGGA [CACACA_site1522] | 6.77 |
| GCATACATCAAGCACACACACACACGCACACGCACA [CACACA_site6311] | 7.98 |
| ACTACGAATGGTAGAGTGCAGTCTGGAGAAGAGTAC [GTGCAC_site9685] | 9.02 |
| GTGAAGTTCAAAATATGTACTTATGTATGTATTTTT [XGTACX_site165] | 6.94 |
| TTATGTTTCATAAAAAATTAATCAAACATATATAAG [CACACA_negctrl_site666] | 6.77 |
| TTATGGATGGACAATAATAAAATTTTTACTTTTATT [CACACA_negctrl_site908] | 6.91 |
| AAAAAAAAAATTATATATATATCCCTTATTTTTTCT [TGCATGCA_negctrl_site151] | 6.94 |
| TCATATATATTGAAATGTACTTATTTTTTCCTCATA [XGTACX_site6526] | 6.85 |
| CATACACAGAAACACACACACATATATACATATATA [CACACA_site1094] | 7.17 |
| TATACATAGAAACACACACACATAAATAAATATATA [CACACA_site1342] | 7.07 |
| CCTTAAATAATATATTCACACAATATAACAAAAATT [CACACA_site4892] | 6.97 |

| Sequence | gcPBM binding intensity (ln) |
| --- | --- |
| TGGTATATAAAACACACACACATATGTATATATATA [CACACA_site926] | 8.39 |
| ATATGTTTTAAGTGTACACATATAATGTATTTTGTT [CACACA_site4929] | 7.36 |
| TATTATGCTATTTAATGTACGGAATTTATATATATA [XGTACX_site564] | 7.68 |
| AACCTATCTATAGGAACAATATATATATATATAATT [CACACA_negctrl_site1707] | 7.05 |
| TTGCTCATTGAAATTATACACACCAAATATATAAAT [CACACA_site2482] | 7.13 |
| AAAATATATAAACGCACATATATTTATGTATATATA [CACACA_negctrl_site163] | 7.16 |
| TAAAAAAAAACATGATGTACATAAAATTTTTTACTT [XGTACX_site7056] | 6.85 |
| AAAAGGGAAAAAATTAAAATTATATATATATATATG [CACACA_negctrl_site137] | 7.21 |
| TTATTAGAGATGTTAAGATATAGGGATAATTTCGAT [XGTACX_negctrl_site395] | 6.92 |
| TACATATATTTAAGGAGTACAAAAAATAATGATAAA [XGTACX_site3539] | 7.39 |
| AAGCTTAAAAATGGGGGTACGTCATAGGGATTCAAC [XGTACX_site8080] | 7.43 |
| AATATATAAACATATACACACAAAAACATATATATA [CACACA_site4855] | 7.46 |
| TTTGACACAATATTTTGTACGAAACTATTAATTCAA [XGTACX_site4853] | 6.85 |
| GACATAGTATTAAGTTGTACATATATAAAAATAAAT [XGTACX_site1583] | 6.95 |
| TTGCTTTTCATTTATTGTACATACCCAGTAGGATAA [XGTACX_site3939] | 7.22 |
| AATGTACACGCACCCACACACAAACAAATATAAATA [CACACA_site7319] | 10.3 |
| TTACGAATGAATATATGTACATATATATATATATAT [XGTACX_site3790] | 8.97 |
| ATGTTTTCAAAAATAAAACATATAAATAAATAAATA [TGCATGCA_negctrl_site226] | 6.77 |
| CAACAACAAATGAGAAGTACATAAATATTAACAATA [XGTACX_site4625] | 6.91 |
| TTATAATACCTACAAAGTACAAACTTAAATATGAAC [XGTACX_site5684] | 6.94 |
| AAATTTTTTTTTTAATTTTTTATTTAAAAAAAATAT [TGCATGCA_negctrl_site174] | 6.79 |
| GTTATAAATAAATATACACACATATATAAAATACAT [CACACA_site7146] | 7.14 |

| Sequence | gcPBM binding intensity (ln) |
| --- | --- |
| TATAACATAAAACACACACACATACATACACAAAAA [CACACA_site1804] | 7.29 |
| CGCTTTATTTATATATGTACATATATATATATATAC [XGTACX_site5012] | 7.42 |
| AAGGCAAACAGACACACACACATATATACCTATATA [CACACA_site7077] | 7.12 |
| GTTATACACATTACATGTACAAAAGTTGCACTTCAT [XGTACX_site6023] | 9.45 |
| GTTGCCATCATTTGGCGTACAGTCAAAACCAAATCT [XGTACX_site1398] | 6.73 |
| TTTGTTCAATTTACATGTACAGATATAATCTAACAT [XGTACX_site370] | 6.89 |
| TCTATTAAAACAAATTGTACTTATTGATAAAGAATA [XGTACX_site3645] | 6.91 |
| ATTTTTATTTTATATACACACAATAATAATATAATA [CACACA_site4015] | 7.18 |
| AAGAGCAACCAAATAGAAAAAGGAAAATAAAAGGAA [CACACA_negctrl_site100] | 6.86 |
| TCCTATTTTATATAATGTACATAAATATATTACATA [XGTACX_site2720] | 7.13 |
| TTACAAATGTAGAAAAGTACATATAATAATAATTTA [XGTACX_site3044] | 7.2 |
| ATGGATAATAATAAGTGTACACATATATTTAGAAGA [XGTACX_site244] | 7.29 |
| GGTAGAAAATCAGTTAAACACACACCGAAAAAAAAA [CACACA_site8934] | 7.24 |
| ATTTGTATAATAAGTTGTACAATTCTTACAATATAA [XGTACX_site4164] | 6.96 |
| TTTAAGCGTTCACTGCTGCACTTTTATGTTGTGACC | 7.95 |
| AAAAAAAAAAAAAGCACACACACATATGCGTATATA [CACACA_site953] | 7.06 |
| TATAAGAAATAAAACCTGATTATAAACCTGTAACCA [CACACA_negctrl_site1302] | 6.72 |
| TAAATATAACAGAATAATATGTGGATTAATAAATGA [CACACA_negctrl_site438] | 6.81 |
| ATATAATATGTTGAATGTACTTAAAAAAATGTATCT [XGTACX_site5385] | 7 |
| TTAAGTTACAATTCTCGTACACATTAAAAGAAAATT [XGTACX_site699] | 7 |
| AAAAAAAAAAAAAAAACACACATGTATACTAGAATA [CACACA_site7108] | 7.56 |
| TTTTAATTATATTATGCACACACAATTGGAAAAAAA [CACACA_site8598] | 8.28 |
